Out of some 310,000 compounds screened, about 14,000 (4.5%) showed an effect of 50% or more. The effect is printed as a negative number. The list shows a part of the results.
biological target: human ether-à-go-go-related gene (hERG) potassium channel (human, UniProt Q12809); assay: primary screen, population patch clamp on CHO cells stably expressing hERG
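Also: peak tail current of the secondary pulse compared with the same well before compound.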

Chain of human ether-à-go-go-related gene (hERG) potassium channel (Q12809 whole entry, looked up): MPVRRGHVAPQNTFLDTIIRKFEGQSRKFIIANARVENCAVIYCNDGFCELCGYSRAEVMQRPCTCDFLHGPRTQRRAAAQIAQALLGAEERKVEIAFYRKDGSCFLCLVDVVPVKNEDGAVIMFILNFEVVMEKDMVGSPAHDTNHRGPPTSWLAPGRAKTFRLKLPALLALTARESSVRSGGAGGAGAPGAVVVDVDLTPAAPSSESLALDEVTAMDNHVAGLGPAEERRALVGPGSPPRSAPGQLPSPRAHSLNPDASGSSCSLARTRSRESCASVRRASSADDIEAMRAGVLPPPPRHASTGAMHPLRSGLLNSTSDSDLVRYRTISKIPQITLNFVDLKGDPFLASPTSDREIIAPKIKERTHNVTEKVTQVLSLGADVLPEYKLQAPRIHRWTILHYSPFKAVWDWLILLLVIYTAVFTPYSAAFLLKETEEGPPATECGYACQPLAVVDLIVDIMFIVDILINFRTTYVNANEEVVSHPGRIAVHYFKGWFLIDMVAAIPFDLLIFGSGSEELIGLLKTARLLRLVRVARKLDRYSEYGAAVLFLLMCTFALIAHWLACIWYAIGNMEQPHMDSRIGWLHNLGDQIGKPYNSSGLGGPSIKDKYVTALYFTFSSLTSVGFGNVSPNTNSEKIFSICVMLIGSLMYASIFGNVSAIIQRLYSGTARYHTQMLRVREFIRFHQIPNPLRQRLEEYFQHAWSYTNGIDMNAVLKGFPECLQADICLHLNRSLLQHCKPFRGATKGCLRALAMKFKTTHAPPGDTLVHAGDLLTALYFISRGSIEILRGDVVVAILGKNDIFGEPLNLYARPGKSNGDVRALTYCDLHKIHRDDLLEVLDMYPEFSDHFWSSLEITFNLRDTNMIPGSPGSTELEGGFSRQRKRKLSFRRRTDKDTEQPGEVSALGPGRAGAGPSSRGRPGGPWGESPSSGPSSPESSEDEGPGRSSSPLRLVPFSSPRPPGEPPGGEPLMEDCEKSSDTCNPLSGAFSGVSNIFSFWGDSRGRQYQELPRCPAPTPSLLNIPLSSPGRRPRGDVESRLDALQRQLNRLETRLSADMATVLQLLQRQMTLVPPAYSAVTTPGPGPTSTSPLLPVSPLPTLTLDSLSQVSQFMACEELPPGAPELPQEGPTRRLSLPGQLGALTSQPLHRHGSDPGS

Row | SMILES | hERG current change (%, negative = inhibition) at 10uM
1 | COc1cccc(-c2nc3ccccc3c(=O)n2NC(=O)c2cccnc2Cl)c1 | 6.55%
2 | COC(=O)c1cc(Nc2cc(C)c3c(O)cccc3n2)cc(C(=O)OC)c1 | -21.7%
3 | CC(=O)N1CCN(Cc2nc3cc(NC(=O)NC4CCCCC4)ccc3n2C)CC1 | 14.3%
4 | Cc1cccc(-n2c(=S)[nH]c3nc4c(cc3c2=O)COC(C)(C)C4)c1 | 16.9%
5 | O=C(NCC1CCCO1)C(c1cccnc1)N(C(=O)Cc1cccs1)c1ccccc1 (centres unmarked) | -1.28%
6 | CCC(C)(C)n1nnnc1C(c1cc2cc(C)ccc2[nH]c1=O)N1CCCC1 (centres unmarked) | -9.97%
7 | Cc1ccc(NCc2ccc(Cl)nc2)c(NCc2ccc(Cl)nc2)c1 | -47.6%
8 | CCOc1ccc(/C=C/C(=O)OCC(=O)NCCc2ccc(OCC)c(OCC)c2)cc1OC | -14.7%
9 | CCOC(=O)C1(CCOC)CCN(C(=O)c2sccc2C)CC1 | 9.22%
10 | COc1cc(CNc2ncn[nH]2)cc(Br)c1OC | 9.68%
11 | O=[N+]([O-])c1ccc(N2CCN(c3ccccc3O)CC2)c(Cl)c1 | 9.9%
12 | CC(C)(C)c1ccc(C(=O)NCC(=O)OCCN2C(=O)c3ccccc3C2=O)cc1 | -16.3%
13 | O=C(CN(c1cccc(Cl)c1)S(=O)(=O)c1ccc(Cl)cc1)NCc1ccccn1 | -53.1%
14 | CC(C)(C)C(=O)Nc1cc(S(=O)(=O)Nc2ccc(Cl)cc2)ccc1Cl | -4.45%
15 | CC(=O)CCC(=O)N1CCCC(N2CCN(c3cccc(Cl)c3)CC2)C1 (centres unmarked) | -2.63%
16 | CC(C)(C)NC(=O)NC(=O)CSc1ncc(C(F)(F)F)cc1Cl | 5.68%
17 | COc1ccc(NS(=O)(=O)c2cn(C)nc2C)cc1 | -2.27%
18 | COc1ccccc1CNC(=O)CCC1N=C2c3ccccc3N=C(SCC(=O)NCC3CCCO3)N2C1=O (centres unmarked) | -1.25%
19 | CC(=O)OCCCCCCCCCCC[N+]1(C)CCCCC1.[I-] | -7.49%
20 | O=C1CC(c2cccs2)Cc2nc(NC(=O)C3CC3)ncc21 (centres unmarked) | -10.3%
21 | Cc1ccc(S(=O)(=O)N2CCCC2C(=O)NCCc2ccccc2)cc1 (centres unmarked) | -4.46%
22 | CC(C)NC(=O)COC(=O)Cn1[nH]c(=O)c2ccccc2c1=O | 12.2%

Row | SMILES | hERG current change (%, negative = inhibition) at 10uM
23 | Cc1cc(NC(=O)CCc2ccc(-c3ccccc3)o2)no1 | 8.58%
24 | COc1cccc(C2c3[nH]c4ccccc4c3CCN2Cc2cnn(C)c2)c1 (centres unmarked) | -69.6%
25 | O=S(=O)(Nc1ncccn1)c1ccc(NC(=S)NCCc2ccccc2)cc1 | -2.45%
26 | CN(NC1OC(=O)c2ccccc21)c1ncc(C(F)(F)F)cc1Cl (centres unmarked) | 12.9%
27 | COc1cc(C(=O)Nc2nccs2)cc(OC)c1OC | 3.55%
28 | CCOC(=O)CCNC(=O)N1CCC(CCOc2ccccc2)(C(=O)OCC)CC1 | -16.1%
29 | CCc1nnc(NC(=O)CSc2nnc(CNc3cccc(Cl)c3)n2CC)s1 | -59.6%
30 | O=C(NCc1ccc(F)cc1)c1ccc(CS(=O)Cc2ccccc2Cl)o1 (centres unmarked) | -37.3%
31 | COc1ccc(OC)c(/C=C/C(=O)OCC(=O)NC2CCCCCCC2)c1 | -4.68%
32 | CCNC(=S)N/N=C/c1ccco1 | 3.39%
33 | COCCn1c(=O)[nH]c2cc(C(=O)N3CCN(c4cccc(C)c4C)CC3)ccc2c1=O | 13.2%
34 | CCn1cc(/C=C/c2cc[n+](C)cc2)c2ccccc21.[I-] | -56.1%
35 | CC(C)(C)SCCNC(=O)COc1ccc(Cl)cc1 | -12.2%
36 | COc1cccc(-c2nnc(SCC(=O)Nc3cc(C)on3)n2C)c1 | 1.12%
37 | O=C(Nc1ccccc1)NC1CCCCC1 | 7.36%
38 | CCOC(=O)C1CCN(C(=O)C2CC(=O)N(c3ccc4c(c3)OCCO4)C2)CC1 (centres unmarked) | -3.89%
39 | COc1cccc(NC(=S)NCCC(c2ccccc2)c2ccccc2)c1 | 2.82%
40 | CC(C1CC2CCC1C2)n1c(-c2ccco2)n[nH]c1=S (centres unmarked) | -15.2%
41 | N#Cc1c(SCC(=O)O)nc(N2CCCCC2)c2c1CCCC2 | 7.31%
42 | Cn1c(CCN2CCN(c3ccccn3)CC2)nc2cc(NC(=O)COc3ccc(Cl)cc3)ccc21 | -22.7%
43 | CN1C(=O)N(C)C2(c3ccccc3)Nn3c(s/c(=C/c4ccccc4)c3=O)=NC12c1ccccc1 (centres unmarked) | 27.1%
44 | Cc1nn(C)c(C)c1NC(=O)CCl.Cl | 10.5%
